According to article PMC6919601, “Identification of Plasmodium dipeptidyl aminopeptidase allosteric inhibitors by high throughput screening” (PLoS ONE, 2019):
Hit rate of the full screen: of about 110,000 compounds, about 230 (0.21%) showed an effect of 50% or more. The list shows a part of the results.

target: DPAP1 (Plasmodium falciparum, UniProt Q8IIJ9); experiment: primary screen, percent inhibition; read by cleavage of a fluorogenic dipeptide substrate; higher = more effect of the substance; set-up: species or system P. falciparum D10 trophozoite lysates; single well
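Note: 30 min substrate incubation versus DMSO and 10 µM JCP410 controls.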

Sequence of DPAP1 (Q8IIJ9 whole entry, looked up): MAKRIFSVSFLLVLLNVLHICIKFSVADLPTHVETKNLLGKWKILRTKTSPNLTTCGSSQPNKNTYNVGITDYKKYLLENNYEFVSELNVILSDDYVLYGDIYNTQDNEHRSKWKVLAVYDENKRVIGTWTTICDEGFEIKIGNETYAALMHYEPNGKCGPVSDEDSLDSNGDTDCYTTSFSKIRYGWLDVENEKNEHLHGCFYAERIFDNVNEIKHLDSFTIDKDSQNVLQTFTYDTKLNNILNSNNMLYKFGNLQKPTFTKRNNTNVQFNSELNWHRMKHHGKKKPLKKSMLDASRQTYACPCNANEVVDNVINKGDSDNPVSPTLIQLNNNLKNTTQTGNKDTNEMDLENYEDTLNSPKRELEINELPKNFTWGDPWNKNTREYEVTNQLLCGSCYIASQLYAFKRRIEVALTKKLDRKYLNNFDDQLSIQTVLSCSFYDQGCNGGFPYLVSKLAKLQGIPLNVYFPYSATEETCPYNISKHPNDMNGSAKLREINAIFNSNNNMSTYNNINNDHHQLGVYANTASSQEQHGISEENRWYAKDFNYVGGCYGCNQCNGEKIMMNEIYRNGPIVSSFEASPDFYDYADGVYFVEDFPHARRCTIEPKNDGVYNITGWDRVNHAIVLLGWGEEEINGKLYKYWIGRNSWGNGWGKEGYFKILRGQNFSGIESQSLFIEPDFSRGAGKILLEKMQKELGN

Row | Structure (SMILES) | % Inhibition @ 10 uM
1 | CC1=C(c2ccc(C)cc2)S(=O)(=O)N=C1NCCC(C)C | 3.87%
2 | O=C(Nc1ccc(S(=O)(=O)N2CCCC2)cc1)c1ccc(F)cc1 | -0.173%
3 | COc1cc2nc(S)n3nc(-c4cccnc4)nc3c2cc1OC | 3.61%
4 | COc1ccc(C2=N/C(=C\c3ccc4c(c3)OCO4)C(=O)O2)cc1 | -2.18%
5 | COc1ccc(OC)c(CNCc2c(C(=O)O)n(C)c3cc(OC)ccc23)c1 | -4.76%
6 | O=C(/C=C/c1ccccc1)Nc1cccc(Cl)c1Cl | 0.317%
7 | CCCOC(=O)C1=C(C)NC(=O)NC1c1ccccc1Cl (centres unmarked) | 3.61%
8 | Cc1ccc(CNC(=O)c2cc(S(=O)(=O)N3CCCCC3)c[nH]2)cc1 | 2.51%
9 | COc1cc(CN2CCSCC2)cc2c1OCO2 | -4.15%
10 | COCCN(Cc1ccc(C)c(Br)c1)S(=O)(=O)c1c[nH]c(C(=O)OC)c1 | -7.84%
11 | CN(C=O)CP(=O)(O)CN1CCCCC1 | -3.14%
12 | Cc1cccc2sc(N(CCCN(C)C)C(=O)c3ccco3)nc12 | -1.6%
13 | CC(C)(Oc1ccc(Cl)cc1)C(=O)NCc1cccnc1 | -15.1%
14 | O=C1CSc2ccccc2N1Cc1ccccc1 | 12.2%
15 | CCO/C(O)=C1\C(C)=NC2=C(C(=O)CC(C)(C)C2)C1c1ccc(OC)c(OC)c1OC (centres unmarked) | 4.1%
16 | Clc1ccc(OCCCCCCN2CCCCC2)cc1 | -0.351%
17 | Cc1nc(C)c(Cc2cccc3ccccc23)c(O)n1 | -0.48%
18 | COc1ccc(C2NCCc3cc(OC)c(OC)cc32)cc1 (centres unmarked) | -1.8%
19 | O=c1/c(=C/c2cn(-c3ccccc3)nc2-c2cccs2)sc2nc(-c3ccncc3)nn12 | 1.52%
20 | CC(C)(C)CC(=O)NCc1nc(-c2ccccc2)no1 | -4.82%
21 | CN(CC(=O)NCc1cccnc1)S(=O)(=O)c1cc(Br)cnc1N | -5.37%
22 | COc1ccccc1-n1c(CN2CCN(Cc3ccccc3)CC2)nc2ccccc2c1=O | 0.245%
23 | COCCCNC(=O)c1c(C(=O)O)c(-c2ccccc2)n2c1-c1ccccc1C2 | -2.83%
24 | O=C1c2ccccc2C(=O)N1CSc1n[nH]c(-c2ccccc2)n1 | 0.76%
25 | CCC(C)NC(=O)CS(=O)(=O)Cc1nc(-c2ccc(C)cc2)oc1C (centres unmarked) | -1.89%
26 | CCOC1=NC2Nc3ccccc3N(CC)C2C1c1ccccc1 (centres unmarked) | 7.96%

Row | Structure (SMILES) | % Inhibition @ 10 uM
27 | O=C(Nc1nc(-c2ccc(F)cc2F)cs1)c1cccc(F)c1F | 1.76%
28 | O=P(O)(c1ccccc1)C1CCCCN1 (centres unmarked) | 3.83%
29 | CC(C)(C)c1ccc2oc(-c3ccc(N)cc3)nc2c1 | 3.9%
30 | CCc1ccc(OCC(=O)Nc2sc(C)c(C)c2C(N)=O)cc1 | 4.3%
31 | O=C(Nc1ncc(CN2CCOCC2)s1)C(c1ccccc1)c1ccccc1 | -3.71%
32 | Cc1c(Br)c(C(=O)Nc2ccn(C34CC5CC(CC(C5)C3)C4)n2)nn1C | -6.81%
33 | Cc1[nH]c(-c2ccc(F)cc2)cc1C(=O)N1CCC(C)CC1 | 0.522%
34 | Cc1ccc(O)c(-c2cc(-c3ccc(Cl)cc3)[nH]n2)c1 | -1.96%
35 | O=C(Cn1nc(-c2ccc(Cl)cc2)c2ccccc2c1=O)NCC1CCCO1 (centres unmarked) | -7.8%
36 | COc1ccc(C2CC(=O)C(/C=N/CCN3CCN(C4OC(=O)c5ccccc54)CC3)=C(O)C2)cc1 (centres unmarked) | 2.24%
37 | CCN1CCN(C(=O)C2(C)CCCCC2)CC1 | -1.36%
38 | CC(C)C(C(=O)O)N1Cc2ccc(C(=O)O)cc2C1=O (centres unmarked) | 2.6%
39 | COc1ccccc1NC(=O)COc1ccc(Cl)cc1 | -3.69%
40 | CC(C)c1ccc(N2CCN(C(N)=O)CC2)cc1 | 5.08%
41 | Cc1nc2nc(NC(=O)c3cccc(Cl)c3)nn2c(O)c1C | 3.66%
42 | Cc1ccc(S(=O)(=O)N2CC(C)N(S(=O)(=O)c3ccc(C)cc3C)CC2C)c(C)c1 (centres unmarked) | 2.03%
43 | O=C(NC(=O)C12CC3CC(CC(C3)C1)C2)N1CCCCC1 | 4.73%
44 | COc1cccc(/C=C2\SC(Nc3ccccc3)=NC2=O)c1OC(C)C | -1.22%
45 | COc1ccc(Cn2c(C(=O)O)c(CNC(C)CCc3ccccc3)c3ccc(C)cc32)cc1 (centres unmarked) | 9.65%
46 | CCOC(=O)c1c(NC(=O)c2ccc(F)cc2)sc2c1CCN(C(C)=O)C2 | 1.88%
47 | NS(=O)(=O)c1ccc2oc3ccc(S(N)(=O)=O)cc3c2c1 | -8.21%
48 | O=C(NCc1cccs1)c1cc(S(=O)(=O)N2CCOCC2)ccc1F | -1.99%
49 | CCOC(=O)N1CCN(CC(O)COC2CC(C)CC(C)(C)C2)CC1 (centres unmarked) | -0.968%
50 | COc1ccc(C2C=C(c3ccc(C(C)C)cc3)Nc3nnnn32)cc1OC (centres unmarked) | 3.45%
51 | CCOC(=O)C1=C(CNCC2CCCO2)NC(=O)NC1c1ccc(C)cc1 (centres unmarked) | -1.03%
52 | NS(=O)(=O)c1ccc(CNC(=O)c2cc(-c3ccccc3)nc3ccccc23)cc1 | 2.76%

Row | Structure (SMILES) | % Inhibition @ 10 uM
53 | O=[N+]([O-])c1ccc(CN2CCCCCCC2)s1 | 0.605%
54 | CCN(CC)CCCNC(=O)c1cccs1 | 3.48%
55 | CS(=O)(=O)N(CC(=O)N1CCc2ccccc2C1)c1ccc(Br)cc1 | 3.35%
56 | Cn1c(=O)c2c(-c3ccccc3Cl)n(C3CCCCC3)cc2n(C)c1=O | 2.02%
57 | Cc1ccc2nc(NC(=O)c3c(O)c4c(n(Cc5ccco5)c3=O)CCCC4)sc2c1 | 4.35%
58 | COC(=O)c1c(C)oc2ccc(O)c(CN3CCC(C)CC3)c12 | 3.74%
59 | COc1cc(Br)c(C2C(C#N)=C(N)Oc3[nH]nc(-c4cccnc4)c32)cc1OC (centres unmarked) | -0.725%
60 | CC(C)N(C(=O)c1ccc(C(=O)N(C)C)cc1)C(C)C | -1.48%
61 | CC1CCCCC1NC(=O)C1CC=CCC1C(=O)O (centres unmarked) | -4.69%
62 | CCC(C)Nc1nc(Cl)nc(N2CCOCC2)n1 (centres unmarked) | -1.48%
63 | COc1ccc(/C=C2/SC(Nc3ccccc3Cl)=NC2=O)cc1OC | 23%
64 | CCc1ccc(-c2cn3cc(C)sc3n2)cc1 | 1.27%
65 | Cc1ccc(-c2nc(NC(=O)c3sc(C)nc3C)sc2C)cc1 | 4%
66 | CCN(CC)C(=O)c1ccc(NC(=O)C(F)(F)F)cc1 | 2.65%
67 | COc1ccc(Br)cc1C1=N/C(=C\c2ccc(C)o2)C(=O)O1 | 1.45%
68 | COCC(C)NC(=O)c1cc(-c2ccccc2OC)on1 (centres unmarked) | 0.0654%
69 | CCCN(Cc1cc(Cl)ccc1O)CC1CC1 | 1.38%
70 | O=C(/C=C/c1ccccc1)C1(O)CCCCC1 | 10.2%
71 | Cc1cc(-c2ccc(C)c(S(=O)(=O)NCCCc3ccccc3)c2)on1 | -0.795%
72 | C=CCNC(=O)c1ccccc1NC(=O)CN(c1ccc(C)cc1C)S(C)(=O)=O | 2.86%
73 | O=C(/C=C/c1ccco1)N1CCn2c(nc3ccccc32)C1 | 5.34%
74 | CO/N=C(\C(=O)O)c1cn2ccccc2n1 | -5.01%
75 | CCN(Cc1ccccc1)C(=O)Cn1c(=O)cc(C)c2c(C)nn(-c3cccc(Cl)c3C)c21 | 4.97%
76 | O=C(Cn1ccc2cc(S(=O)(=O)N3CCCC3)ccc21)NCCN1CCOCC1 | 1.41%
77 | Cc1nn(-c2ccccc2)c(-n2cccc2)c1C(=O)N1CCC(C(=O)NC(C)(C)C)CC1 | 3.4%
78 | O=C(NCc1ccccc1)c1cc(-c2ccncc2)nc2ccccc12 | 1.16%

Row | Structure (SMILES) | % Inhibition @ 10 uM
79 | O=C(Nc1cccc(C(F)(F)F)c1)Nc1ccc(Cl)cn1 | 1.7%
80 | CS(=O)(=O)N(CC(=O)Nc1ccccc1C(=O)N1CCOCC1)c1ccccc1 | -2.46%
81 | CCC(C)NC(=O)C(NS(=O)(=O)c1cccc2nsnc12)c1ccccc1 (centres unmarked) | -1.43%
82 | Cc1ccc2c(c1)-c1onc(C(=O)N3C(C)CCCC3C)c1CO2 (centres unmarked) | 3.31%
83 | CSc1ccc(C(=O)N[C@@H](Cc2cc(I)c(O)c(I)c2)C(=O)NCC#N)cc1 | -1.41%
84 | COc1ccc(C2OC[C@H]3O[C@H](O)[C@H](NC(C)=O)[C@@H](O)[C@@H]3O2)cc1 (some centres unmarked) | -0.725%
85 | O=C(Nc1ccccc1)c1ccccc1NC(=O)C1CC=CCC1C(=O)O (centres unmarked) | 5.08%
86 | CCc1ccccc1N/C=C1/C(=O)NC(=O)N(c2ccccc2)C1=O | 0.673%
87 | COc1ccc(CN2CCN(C(=O)c3cccc(Cl)c3)CC2)c(OC)c1 | 2.98%
88 | O=C(O)CCn1c(SCCOc2ccccc2)nc2ccccc21 | -0.473%
89 | CCCOc1ccc(/C=C(\C#N)c2nc3ccccc3n2C)cc1OC | -6.6%
90 | COc1ccc([C@@H]2[C@H]3CCCC[C@]3(O)CCN2C)cc1OC | 2.6%
91 | CCc1nn(CC(=O)N2CCC(Cc3ccccc3)CC2)c(=O)c2cccn12 | -7.52%
92 | O=C(O)CN1C(=O)S/C(=C\c2ccc3c(c2)OCO3)C1=O | -3.45%
93 | COc1cccc(/C=C2/NC(=O)NC2=O)c1OCC(=O)Nc1ccccc1 | 3.17%
94 | COc1ccc(S(=O)(=O)N2CCN(Cc3cc(OC)c(O)c(OC)c3)CC2)cc1 | -10.8%
95 | COc1ccc(NC(=O)CN(c2ccc(C(C)C)cc2)S(C)(=O)=O)c(OC)c1 | -0.796%
96 | CCCc1ccc(OCC(O)CN2CCOCC2)cc1 (centres unmarked) | -0.424%
97 | O=C(O)c1cc2cc(Br)ccc2oc1=O | 1.91%
98 | COc1ccc(CNC(=O)C2Sc3nnc(-c4ccccc4)n3NC2c2ccc(Cl)cc2)cc1 (centres unmarked) | 0.0289%
99 | CCCCC/C=C/C(=O)Nc1cccc2ccccc12 | 0.00178%
100 | CC(=O)c1ccc(NS(=O)(=O)c2ccc(S(=O)(=O)N3CCOCC3)cc2)cc1 | -2.82%
101 | CCc1c(-c2ccccc2)cn2c1-c1ccc(C)n1CC2 | 4.22%
